# Measured values reported in the supplement of paper PMC8728848.
# The other results are listed elsewhere or left out.
# B1: DC-ASGPR S+GEE (Homo sapiens) (protein)
# chain: MTRTYENFQYLENKVKVQGFKNGPLPLQSLLQRLRSGPCHLLLSLGLGLLLLVIICVVGFQNSKFQRDLVTLRTDFSNFTSNTVAEIQALTSQGSSLEETIASLKAEVEGFKQERQAVHSEMLLRVQQLVQDLKKLTCQVATINNNGEEASTEGTCCPVNWVEHQDSCYWFSHSGMSWAEAEKYCQLKNAHLVVINSREEQNFVQKYLGSAYTWMGLSDPEGAWKWVDGTDYATGFQNWKPGQPDDWQGHGLGGGEDCAHFHPDGRWNDDVCQRPYHWVCEAGLGQTSQESH
# Columns and labels:
# Assay in all cases: glycan array binding signal (z-score within array); higher = stronger binding
# Details in all cases: glycan notation: IUPAC condensed, linker removed
# [1] = target: Fuc(a1-2)[GalNAc(b1-3)]Gal
# In short: (§1)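 Arrays were curated from the Consortium for Functional Glycomics database, 3228 in total, and kept only where the protein sequence was available. Binding is expressed as a within-array Z-score. This score was averaged across arrays of the same protein sequence at different concentrations or buffers and across linkers, and negative values can be read as non-binding.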
# [2] = target: Fuc(a1-3)GlcNAc
# In short: as §1
# [3] = target: Fuc(a1-3)[Gal(b1-4)]Glc6S
# In short: as §1
# [4] = target: Fuc(a1-3)[Gal(b1-4)]GlcNAc
# In short: as §1
# [5] = target: Fuc(a1-3)[Gal(b1-4)]GlcNAc(b1-2)Man
# In short: as §1
# [6] = target: Fuc(a1-3)[Gal(b1-4)]GlcNAc(b1-2)Man(a1-3)[Fuc(a1-3)[Gal(b1-4)]GlcNAc(b1-2)Man(a1-6)]Man(b1-4)GlcNAc(b1-4)GlcNAc
# In short: as §1
# [7] = target: Fuc(a1-3)[Gal(b1-4)]GlcNAc(b1-2)Man(a1-3)[Fuc(a1-3)[Gal(b1-4)]GlcNAc(b1-2)Man(a1-6)]Man(b1-4)GlcNAc(b1-4)[Fuc(a1-6)]GlcNAc
# In short: as §1
# [8] = target: Fuc(a1-3)[Gal(b1-4)]GlcNAc(b1-3)Gal(b1-3)[Fuc(a1-4)]GlcNAc
# In short: as §1
# [9] = target: Fuc(a1-3)[Gal(b1-4)]GlcNAc(b1-3)Gal(b1-4)[Fuc(a1-3)]GlcNAc
# In short: as §1
# [10] = target: Fuc(a1-3)[Gal(b1-4)]GlcNAc(b1-3)Gal(b1-4)[Fuc(a1-3)]GlcNAc(b1-3)Gal(b1-4)[Fuc(a1-3)]GlcNAc
# In short: as §1
# [11] = target: Fuc(a1-3)[Gal(b1-4)]GlcNAc(b1-3)GalNAc
# In short: as §1
# [12] = target: Fuc(a1-3)[Gal(b1-4)]GlcNAc(b1-6)GalNAc
# In short: as §1
# [13] = target: Fuc(a1-3)[Gal(b1-4)]GlcNAc(b1-6)[Gal(b1-3)GlcNAc(b1-3)]Gal(b1-4)Glc
# In short: as §1
# [14] = target: Fuc(a1-3)[Gal(b1-4)]GlcNAc6S
# In short: as §1
# [15] = target: Fuc(a1-3)[Gal3S(b1-4)]Glc
# In short: as §1
# [16] = target: Fuc(a1-3)[Gal3S(b1-4)]GlcNAc
# In short: as §1
# [17] = target: Fuc(a1-3)[Gal3S(b1-4)]GlcNAc6S
# In short: as §1
# [18] = target: Fuc(a1-3)[GalNAc(b1-4)]GlcNAc
# In short: as §1
# [19] = target: Fuc(a1-3)[GalNAc(b1-4)]GlcNAc6S
# In short: as §1
# [20] = target: Fuc(a1-4)GlcNAc
# In short: as §1
# [21] = target: Fuc(b1-3)GlcNAc
# In short: as §1
# [22] = target: Gal(a1-2)Gal
# In short: as §1
# [23] = target: Gal(a1-3)Gal
# In short: as §1
# [24] = target: Gal(a1-3)Gal(b1-3)GlcNAc
# In short: as §1
# [25] = target: Gal(a1-3)Gal(b1-3)GlcNAc(b1-2)Man
# In short: as §1
# [26] = target: Gal(a1-3)Gal(b1-3)GlcNAc(b1-2)Man(a1-3)[Gal(a1-3)Gal(b1-3)GlcNAc(b1-2)Man(a1-6)]Man(b1-4)GlcNAc(b1-4)GlcNAc
# In short: as §1
# [27] = target: Gal(a1-3)Gal(b1-3)GlcNAc(b1-3)GalNAc
# In short: as §1
# [28] = target: Gal(a1-3)Gal(b1-3)GlcNAc(b1-6)GalNAc
# In short: as §1
# [29] = target: Gal(a1-3)Gal(b1-3)[Fuc(a1-4)]GlcNAc(b1-2)Man(a1-3)[Gal(a1-3)Gal(b1-3)[Fuc(a1-4)]GlcNAc(b1-2)Man(a1-6)]Man(b1-4)GlcNAc(b1-4)GlcNAc
# In short: as §1
# [30] = target: Gal(a1-3)Gal(b1-4)Glc
# In short: as §1
binder,measurement,setting,value
B1,glycan array binding signal (z-score),[1],4
same,glycan array binding signal (z-score),[2],-0.215
same,glycan array binding signal (z-score),[3],-0.337
same,glycan array binding signal (z-score),[4],-0.327
same,glycan array binding signal (z-score),[5],-0.257
same,glycan array binding signal (z-score),[6],-0.015
same,glycan array binding signal (z-score),[7],-0.294
same,glycan array binding signal (z-score),[8],-0.299
same,glycan array binding signal (z-score),[9],-0.391
same,glycan array binding signal (z-score),[10],-0.091
same,glycan array binding signal (z-score),[11],-0.321
same,glycan array binding signal (z-score),[12],2.2
same,glycan array binding signal (z-score),[13],-0.352
same,glycan array binding signal (z-score),[14],-0.315
same,glycan array binding signal (z-score),[15],-0.322
same,glycan array binding signal (z-score),[16],-0.308
same,glycan array binding signal (z-score),[17],-0.333
same,glycan array binding signal (z-score),[18],2.8
same,glycan array binding signal (z-score),[19],1.66
same,glycan array binding signal (z-score),[20],-0.265
same,glycan array binding signal (z-score),[21],-0.094
same,glycan array binding signal (z-score),[22],-0.304
same,glycan array binding signal (z-score),[23],-0.277
same,glycan array binding signal (z-score),[24],-0.245
same,glycan array binding signal (z-score),[25],-0.314
same,glycan array binding signal (z-score),[26],-0.415
same,glycan array binding signal (z-score),[27],-0.224
same,glycan array binding signal (z-score),[28],4.91
same,glycan array binding signal (z-score),[29],-0.197
same,glycan array binding signal (z-score),[30],-0.323
